# Test results as given in PubChem BioAssay AID1721 (National Center for Advancing Translational Sciences (NCATS), 2009).
# The whole screen tested about 290,000 compounds, of which about 1,100 (0.38%) were called active. The shares of active, inactive and inconclusive entries below differ from those in the screen. Calls come from the whole dose curve; as a rule, active = well fitted inhibition curve with a large enough effect; inconclusive = small, poorly fitted or top-dose-only effect, or another doubt; inactive = no such curve, though single readings can be large or run the other way. A potency beside an inconclusive call is a rough fit, not a confirmed value.
# Target: Pyruvate kinase (Leishmania mexicana) (UniProt Q27686)
# Chain of UniProt Q27686 (Q27686 whole entry, looked up): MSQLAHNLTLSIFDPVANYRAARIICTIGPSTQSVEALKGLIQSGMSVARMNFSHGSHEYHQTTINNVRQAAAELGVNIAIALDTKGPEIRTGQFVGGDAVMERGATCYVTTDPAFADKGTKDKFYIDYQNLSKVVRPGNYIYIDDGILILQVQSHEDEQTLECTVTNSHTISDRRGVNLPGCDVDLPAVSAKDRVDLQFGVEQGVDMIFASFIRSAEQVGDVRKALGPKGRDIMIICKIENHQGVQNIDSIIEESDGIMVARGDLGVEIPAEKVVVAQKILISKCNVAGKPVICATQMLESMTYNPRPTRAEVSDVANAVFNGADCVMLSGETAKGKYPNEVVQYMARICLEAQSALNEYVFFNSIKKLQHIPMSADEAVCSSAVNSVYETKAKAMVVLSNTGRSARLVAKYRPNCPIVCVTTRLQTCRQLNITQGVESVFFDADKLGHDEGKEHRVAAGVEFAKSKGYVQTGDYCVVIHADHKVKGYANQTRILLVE
# Assay: qHTS Assay for Inhibitors of Leishmania Mexicana Pyruvate Kinase (LmPK)
# Settings: purified LmPK, Kinase-Glo ATP luminescence, 1 h; activity change, negative = inhibition: at 57.5 µM (top of the series) unless noted
# Text: NIH Chemical Genomics Center [NCGC] Malcolm Walkinshaw, Hugh Morgan, Linda Gilmore University of Edinburgh, UK MLPCN Grant: 1 R03 MH085697-01 NCGC Assay Overview: Pyruvate kinase (L. Mexicana) (LmPK) enzyme was supplied as a highly purified (>95% pure) sulphate-free preparation from University of Edinburgh, UK and assayed for its ability to generate ATP from ADP using phosphoenolpyruvate (PEP) as a substrate. ATP generation was detected in a coupled reaction by luciferase-mediated luminescence, an ATP-dependent process. […] The enzyme was assayed at an intermediate level of activity to screen for both inhibitors and activators.
# NCGC Assay Protocol Summary: Three uL of enzyme mix (kept on ice) in assay buffer (50 mM Imidazole pH7.2, 50 mM KCl, 7 mM MgCl2, 0.01% Tween 20, 0.05% BSA) containing PEP (0.5 mM final concentration) and LmPK (0.1 nM final concentration) was dispensed into white solid bottom 1,536 well microtiter plates. 23 nL of compound were delivered by a pin tool and 1 uL of ADP mix in assay buffer (r.t; 0.1 mM final ADP concentration) was added. Plates were incubated at room temperature for 1 hour. Two uL of detection mix (Kinase-Glo, Promega; at 4 degree Celsius protected from light) was added and luminescence read by a ViewLux (Perkin Elmer) at 1 second exposure/plate. Data were normalized to the uninhibited and AC100 inhibition (no enzyme). To monitor activation, the first column contained a five-fold concentration of LmPK (0.5 nM).
# % is set by controls: 0 for no effect and ±100 for the full control effect; potency is the fitted concentration of half-maximal effect; tags give direction and shape of the fitted curve.
SMILES,Potency,"activity change, negative = inhibition"
O=C(COc1ccccc1)NC1=NCCS1,"inconclusive: 28.2 µM [falling, single point]",–
c1ccc2nc3c(cc2c1)CCCCCC3,–,inactive: 0.417%
CCSc1nn2c(=O)c3ccccc3nc2s1,"inconclusive: 15.8 µM [falling, single point]",–
O=C(c1ccco1)c1cn(Cc2ccccc2Cl)c2ccccc12,–,inactive: 4.73%
CCOc1ncccc1C(=O)OCC(=O)c1ccccc1,"inconclusive: 31.6 µM [falling, single point]",–
Cc1cccc(/C=C/c2nc3ccccc3c(=O)[nH]2)c1,"inconclusive: 14.1 µM [falling, partial curve]",–
COc1cc(O)c(C(=O)O)c(-c2cc(O)c(O)cc2C)c1,"inconclusive: 2.82 µM [falling, full curve]",–
Cc1ccc(C(=O)O/N=C(\N)c2ccccn2)cc1,active: 14.1 µM,–
c1ccc(C2=Nc3ccccc3OC2)cc1,"inconclusive: 8.91 µM [falling, partial curve]",–
O=C1C(=C2SCCCS2)CC/C1=C\c1ccc(F)cc1,"inconclusive: 14.1 µM [falling, partial curve]",–
Cc1cc(N)c(-n2cc3c(=O)n(C)c(=O)n(C)c3c2)cc1C,"inconclusive: 15.8 µM [falling, partial curve]",–
Cc1ccccc1OCC(=O)Nc1ccccc1-c1ccccc1,"inconclusive: 14.1 µM [falling, partial curve]",–
CC1(O)CC(c2ccc(Cl)cc2)=NN1C(=O)c1ccc([N+](=O)[O-])cc1 (configuration not stated),"inconclusive: 22.4 µM [falling, single point]",–
CCCN1C(=O)c2ccc(C(=O)Nc3cc(C)ccc3O)cc2C1=O,–,inactive: -5.57%
CCCS(=O)(=O)c1cnc(C2COc3ccccc3O2)nc1N (configuration not stated),"inconclusive: 22.4 µM [falling, single point]",–
COc1ccc(-n2cc(-c3ccccc3)[nH]c2=S)cc1,"inconclusive: 3.98 µM [falling, partial curve]",–
CC(C)(C)c1ccc(O)c(N=Cc2cc3c(cc2[N+](=O)[O-])OCO3)c1,active: 1.58 µM,–
O=C(Nc1cccc2ccccc12)c1onc2c1CCCC2,"inconclusive: 25.1 µM [falling, partial curve]",–
O=C(Nc1ccccc1Cl)C(=O)c1cn(CC(=O)N2CCOCC2)c2ccccc12,–,inactive: -13.3%
Cc1c(N=C2C=C(Br)C(=O)C(Br)=C2)c(=O)n(-c2ccccc2)n1C,"inconclusive: 17.8 µM [falling, partial curve]",–
CCc1ccc(OCC(=O)NC2CCCCC2)c(Br)c1,–,inactive: -10.4%

SMILES,Potency,"activity change, negative = inhibition"
O=C(N/N=C/c1cccs1)c1n[nH]c2c1CCCC2,active: 14.1 µM,–
Cn1nc(C(=O)Nc2nc3ccc(S(C)(=O)=O)cc3s2)ccc1=O,"inconclusive: 12.6 µM [falling, partial curve]",–
S=c1[nH]nc(CCc2ccccc2)n1-c1ccccc1,active: 3.55 µM,–
CCN(Cc1ccccc1)C(=O)CCS(=O)(=O)c1cc2c(cc1Cl)NC(=O)CO2,–,inactive: -6.09%
O=C(Nc1ccccc1)Nc1ccccc1C(=O)NCc1ccco1,"inconclusive: 31.6 µM [falling, partial curve]",–
CC(C)c1ccc(/C=N/NC(=O)c2ccccn2)cc1,active: 14.1 µM,–
CCOC(=O)/C=C1\SCC(=O)N1CC(=O)Nc1cccc(F)c1,–,inactive: 1.85%
Cc1c(Br)c(-c2n[nH]c(=S)n2Cc2ccco2)nn1C,"inconclusive: 31.6 µM [falling, single point]",–
COc1ccc(OC)c(-n2c(-c3cccc(O)c3)n[nH]c2=S)c1,active: 2 µM,–
Cc1ccc(N=Nc2c(=O)[nH]n3c(=O)cc(C)[nH]c23)cc1,"inconclusive: 25.1 µM [falling, single point]",–
Cc1cccc(NCc2nc3ccccc3n2C)c1,"inconclusive: 15.8 µM [falling, partial curve]",–
Oc1[nH]c2ccc(Br)cc2c1N=NC(=S)N1CCOCC1,active: 22.4 µM,–
COc1ccc(NC(=O)c2scc(S(=O)(=O)C(C)C)c2N)cc1,"inconclusive: 35.5 µM [falling, single point]",–
c1ccc(COc2ccc(OCCCn3cncn3)cc2)cc1,"inconclusive: 28.2 µM [falling, partial curve]",–
NC(=O)c1ccccc1N/C=C/C(=O)c1ccco1,"inconclusive: 22.4 µM [falling, partial curve]",–
Fc1cccc(-c2n[nH]c(=S)n2-c2ccccc2)c1,"inconclusive: 20 µM [falling, partial curve]",–
COc1ccc(Nc2ccc3c(c2)=NC2(CCCCC2)[N+]=3[O-])cc1,"inconclusive: 25.1 µM [falling, partial curve]",–
CCN(CC)c1ccc2nc3ccccc3[n+](CC)c2c1,"inconclusive: 17.8 µM [falling, partial curve]",–
COc1ccc(N2CCN(C(c3cccs3)C(C)NC(=O)C(=O)N3CCCCC3)CC2)cc1 (configuration not stated),–,inactive: 10.8%
NC(=O)C1CCN(Cc2cccc(OCc3ccccc3)c2)CC1,–,inactive: -1.37%
c1ccc(CNc2ccc3ccccc3n2)nc1,active: 17.8 µM,–

SMILES,Potency,"activity change, negative = inhibition"
COC(=O)c1ccc(/C=N/NC(=O)c2cccc(F)c2)cc1,"inconclusive: 3.55 µM [falling, full curve]",–
COc1ccc(/C=C2/SC(=O)NC2=O)cc1,"inconclusive: 39.8 µM [falling, single point]",–
COc1ccc(OC)c(-n2c(-c3cccc(S(=O)(=O)N(C)C)c3)n[nH]c2=S)c1,"inconclusive: 20 µM [falling, single point]",–
O=C(O)c1ccc(N/N=C/c2ccc3c(c2)OCO3)cc1,active: 10 µM,–
COC(=O)c1cnn(-c2nc(OC)cc(OC)n2)c1C,–,inactive: -2.98%
O=c1[nH]c(O)c(N=Nc2cc([N+](=O)[O-])ccc2O)c(=O)[nH]1,"inconclusive: 22.4 µM [falling, partial curve]",–
CC(C)n1c(-c2ccc(C(C)(C)C)cc2)n[nH]c1=S,active: 8.91 µM,–
O=[N+]([O-])c1ccc(/C=N/Nc2nc(N3CCCCC3)nc(N3CCCCC3)n2)cc1,–,inactive: 6.41%
S=c1[nH]ncn1/N=C/c1ccc(Br)cc1,"inconclusive: 14.1 µM [falling, partial curve]",–
S=C(Nc1ccc2nsnc2c1)N1CCCC1,"inconclusive: 28.2 µM [falling, partial curve]",–
Cc1cc(Nc2ccc(Br)cc2)nc(-c2ccccc2O)n1,–,inactive: -0.294%
Cc1ccccc1Nc1nc(N)c2ccccc2n1,"inconclusive: 20 µM [falling, partial curve]",–
COc1ccccc1-c1noc(-c2ccncc2)n1,"inconclusive: 28.2 µM [falling, partial curve]",–
Cc1ccc(S(=O)(=O)N2C(=O)[C@@H]3Cc4ccccc4CN3C2=O)cc1,"inconclusive: 39.8 µM [falling, single point]",–
CCOc1cc(-c2cc(-c3ccc(C)o3)nc(N)c2C#N)ccc1O,–,inactive: 13.7%
Cc1nc(Nc2nc3ccccc3o2)nc(C)c1C,active: 17.8 µM,–
O=[N+]([O-])c1ccc(Sc2cccc[n+]2[O-])c2nonc12,"inconclusive: 35.5 µM [falling, single point]",–
Cc1nc(N2CCCCC2)c2c(C)c(C(=O)Nc3ccc4c(c3)OCCO4)sc2n1,–,inactive: 8.61%
Cc1nc2c(-c3ccccc3)c(C)nn2c(N)c1-c1ccccc1,–,inactive: 2.44%
CSc1ccc(/C=N/NC(=O)c2cc(O)cc(O)c2)cc1,"inconclusive: 20 µM [falling, partial curve]",–
O=C(c1ccc(-c2nc3ccccc3s2)s1)N1CCOCC1,active: 14.1 µM,–

SMILES,Potency,"activity change, negative = inhibition"
S=c1[nH]nc(-c2ccc(Br)cc2)n1Cc1ccco1,active: 22.4 µM,–
COC(=O)C1C2C=CC3(CN(Cc4ccco4)C(=O)C13)O2 (configuration not stated),–,inactive: -0.0316%
C(=N\Nc1nc2ccccc2s1)/c1ccccn1,"inconclusive: 15.8 µM [falling, partial curve]",–
Cc1ccc(NC(=O)c2ccccc2)cc1,"inconclusive: 17.8 µM [falling, single point]",–
Cc1ccc(C(=O)OCC(=O)N2CCCC2)cc1,–,inactive: -6.14%
O=C(/C=C/c1ccco1)N1CCc2ccccc21,active: 7.94 µM,–
CCc1ccc(/C=N/NC(=O)c2c[nH]c3ccccc23)s1,–,inactive: -2.23%
Cc1ncsc1C(=O)Nc1nc2c(s1)CCCC2,"inconclusive: 22.4 µM [falling, single point]",–
CCn1c(SCC(=O)Nc2ccc3c(c2)OCO3)nnc1C(C)C,–,inactive: 0.495%
O/N=C1/CC/C(=N\O)c2nn(-c3ccccc3)nc21,"inconclusive: 28.2 µM [falling, partial curve]",–
Cc1cccc(/C(N)=N/OC(=O)c2cccs2)c1,active: 12.6 µM,–
C/C(=N\NC(=O)c1ccccn1)c1ccc(Cl)cc1,"inconclusive: 28.2 µM [falling, single point]",–
O=C1NC(=S)S/C1=C1\Sc2ccccc2N1CCCS(=O)(=O)O,active: 15.8 µM,–
Cc1ccc(C(=O)Nc2ncc3c(Cl)cccc3n2)cc1,active: 12.6 µM,–
Cc1cccc(/C(N)=N/OC(=O)c2ccncc2)c1,"inconclusive: 17.8 µM [falling, partial curve]",–
Cc1ccc(C)c(NC(=S)Nc2cccc3cnccc23)c1,–,inactive: 1.16%
Cc1ccc(-n2c(SCC(=O)Nc3ccc4c(c3)OCO4)nnc2-c2cccs2)cc1,"inconclusive: 39.8 µM [falling, single point]",–
Nc1ccc(N)c(C(=O)O)c1,"inconclusive: 39.8 µM [falling, single point]",–
CC(=O)/C(N=Nc1ccc(C(=O)O)cc1)=C(\C)O,"inconclusive: 22.4 µM [falling, partial curve]",–
